Laboratory results published in PMC10466050, “A comparative study of human and zebrafish glucocorticoid receptor activities of natural and pharmaceutical steroids” (Frontiers in Endocrinology, 2023).

Assays:
hGR [1] = molecular target: T1, hGR (Homo sapiens, UniProt P04150); test: cell-based
T1 sequence (P04150 1-777): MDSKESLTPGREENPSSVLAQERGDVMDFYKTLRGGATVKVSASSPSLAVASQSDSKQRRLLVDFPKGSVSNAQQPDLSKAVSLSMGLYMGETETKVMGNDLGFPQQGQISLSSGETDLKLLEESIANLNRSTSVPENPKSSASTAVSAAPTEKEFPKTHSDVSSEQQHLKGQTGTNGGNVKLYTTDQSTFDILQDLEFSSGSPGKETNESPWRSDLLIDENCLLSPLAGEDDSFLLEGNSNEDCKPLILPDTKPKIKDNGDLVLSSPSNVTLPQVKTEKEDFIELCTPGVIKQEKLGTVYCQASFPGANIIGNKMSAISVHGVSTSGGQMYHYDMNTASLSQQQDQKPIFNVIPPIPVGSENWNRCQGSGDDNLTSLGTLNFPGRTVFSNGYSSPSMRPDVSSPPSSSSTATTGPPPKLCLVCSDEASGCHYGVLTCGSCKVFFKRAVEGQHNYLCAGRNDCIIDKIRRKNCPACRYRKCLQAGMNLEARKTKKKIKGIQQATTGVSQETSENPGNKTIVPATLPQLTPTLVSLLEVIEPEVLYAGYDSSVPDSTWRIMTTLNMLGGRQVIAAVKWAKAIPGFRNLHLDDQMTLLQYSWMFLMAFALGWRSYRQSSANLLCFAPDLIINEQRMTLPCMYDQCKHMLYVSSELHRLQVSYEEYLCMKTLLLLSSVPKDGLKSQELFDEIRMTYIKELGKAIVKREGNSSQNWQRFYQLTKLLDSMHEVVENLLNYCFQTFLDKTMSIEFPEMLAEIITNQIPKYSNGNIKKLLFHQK

hGR [2] = molecular target: T1, hGR; settings: HMLN-hGR; with 3 nM dexamethasone; % of maximal luciferase activity induced by 100 nM dexamethasone; at 10^-5M
zfGR = zfGR (Danio rerio, UniProt Q1XHK0); test: Antagonistic activity assessment in presence of 3 nM dexamethasone, UMLN-zfGR cells; format: cell-based, zebrafish

Row | SMILES | IC50 (hGR [1]) | % min act (minimal activity) (hGR [2]) | % min act (minimal activity) (zfGR; UMLN-zfGR, with 3 nM dexamethasone, % of maximal luciferase activity induced by 100 nM dexamethasone, at 10^-5M) | IC50 (zfGR; read-out: IC50)
1 | CC(=O)[C@H]1CC[C@H]2[C@@H]3C=CC4=CC(=O)CC[C@@]4(C)[C@@H]3CC[C@]12C [dydrogesterone] | 2700 nM | 6 ± 1% |  | 
2 | CCC(=O)[C@@]1(C)CC[C@H]2[C@@H]3CCC4=CC(=O)CCC4=C3CC[C@@]21C [promegestone] |  |  | 8 ± 2% | 1110 nM
